In PubChem BioAssay AID488969 (Vanderbilt High Throughput Screening Facility, 2010):
The full ranking holds about 110,000 compounds; the median of “z-score” is about -0.1, and the highest 2% start at about 2. The list shows a part of the results. The source made the active and inactive calls.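 The calls were made as follows: active = z-score in the third read window above 3 or below -3; inactive = the rest.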

molecular target: Metabotropic glutamate receptor 8 (Rattus norvegicus) (UniProt P70579); test: mGluR8 Gi/Go-coupled signaling modulation – cell-based, rat, thallium flux, HTS, primary screen (AID 488969); conditions: HEK293 rat mGluR8, GIRK (G protein-gated inwardly rectifying potassium channel) thallium flux, FluoZin2; at 10 µM; stronger effect = higher value; submaximal glutamate (EC20) added with thallium
UniProt P70579, sequence (P70579 whole entry, looked up): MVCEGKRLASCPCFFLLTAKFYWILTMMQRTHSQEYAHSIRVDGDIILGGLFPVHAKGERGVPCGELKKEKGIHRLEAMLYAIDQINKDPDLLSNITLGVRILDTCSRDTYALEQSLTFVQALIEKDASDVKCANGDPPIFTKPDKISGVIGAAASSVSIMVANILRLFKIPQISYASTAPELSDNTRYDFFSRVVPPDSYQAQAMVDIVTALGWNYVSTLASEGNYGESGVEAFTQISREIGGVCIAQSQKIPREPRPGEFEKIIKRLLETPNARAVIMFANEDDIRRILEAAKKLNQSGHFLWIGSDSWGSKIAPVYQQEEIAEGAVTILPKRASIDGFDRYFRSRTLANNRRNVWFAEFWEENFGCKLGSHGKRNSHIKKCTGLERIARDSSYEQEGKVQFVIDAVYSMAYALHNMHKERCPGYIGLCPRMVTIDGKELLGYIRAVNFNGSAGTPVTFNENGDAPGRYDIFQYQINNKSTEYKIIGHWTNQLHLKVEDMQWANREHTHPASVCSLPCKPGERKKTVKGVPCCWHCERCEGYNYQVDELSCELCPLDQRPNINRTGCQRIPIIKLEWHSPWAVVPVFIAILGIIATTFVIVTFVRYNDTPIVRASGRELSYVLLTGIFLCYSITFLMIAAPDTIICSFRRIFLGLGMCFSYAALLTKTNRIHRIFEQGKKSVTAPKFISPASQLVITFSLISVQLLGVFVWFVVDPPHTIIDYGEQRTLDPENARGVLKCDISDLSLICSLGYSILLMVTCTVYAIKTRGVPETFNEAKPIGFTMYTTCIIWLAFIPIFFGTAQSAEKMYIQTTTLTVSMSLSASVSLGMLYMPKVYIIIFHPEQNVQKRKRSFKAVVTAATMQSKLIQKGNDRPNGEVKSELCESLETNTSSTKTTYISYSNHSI

Compound	z-score
CCO/N=C(/c1nonc1N)N1CCN(c2ccc([N+](=O)[O-])cc2)CC1	0.74
CCn1c(CSCc2ccc(C)cc2)nnc1SCC(=O)N1CCN(c2ccccc2)CC1	-0.28
O=c1n(-c2ccccc2)c(=O)n(Cc2ccccn2)n1Cc1ccccn1	0.0222
Cc1ccc(S(=O)(=O)C2(C(=O)N3CCN(C4CCCCC4)CC3)CC2)cc1	-0.279
CCOC(=O)NC(NC(=S)Nc1ccc(OCC)cc1)C(Cl)(Cl)Cl (stereo not given)	-0.0639
COC(=O)C(CCSC)NC(=O)c1cc2c(n(-c3ccccc3)c1=O)CC(C)(C)CC2=O (stereo not given)	0.95
CC1CCCC(C)N1C(=O)c1cc(F)c(F)cc1Cl (stereo not given)	-0.11
COc1ccccc1NC(=O)NCc1ccc2c(c1)OCO2	0.532
Cc1cc(C)cc(N2C(=O)CC(n3ccnc3)C2=O)c1 (stereo not given)	0.088
COc1cccc(CN2CCCN(S(=O)(=O)c3ccc(Br)cc3)CC2)c1	-0.778
O=C(Nc1cccc(-c2cnc3ccccc3n2)c1)c1ccco1	-2.07
O=C(Nc1ccccn1)c1ccc(=O)[nH]n1	0.0504
COc1ccc(C2CC(c3ccccc3)=NN2C(=O)CSc2nccc(=O)[nH]2)cc1 (stereo not given)	-0.737
Nc1ccccc1S(=O)(=O)NC1=NCCCCC1	-0.00421
N#C/C(=C(\O)Cc1ccccc1)c1nc2ccccc2[nH]1	-0.0506
CN(Cc1cccs1)C(=O)CSc1nnnn1C	0.0544
Cc1ccc(S(=O)(=O)N2CCCCC2C(=O)N2CCN(Cc3ccccc3)CC2)cc1 (stereo not given)	-0.926
Cc1cc(Cl)c(S(=O)(=O)Nc2ccc(Cl)cn2)cc1OCC(N)=O	0.203
COC(=O)Nc1sc(C(=O)N(C)C)c(C)c1C(=O)OC	0.175
O=C(Cc1ccccc1)Nc1ccccc1C(=O)Nc1ccccc1	-0.133
COCCn1c(SCC(=O)Nc2nnc(C)s2)nnc1-c1c[nH]c2ccccc12	-0.286
CC1(C)CC(=O)C2=C(C1)N(Cc1ccccc1)C(=O)C2(O)C(F)(F)F (stereo not given)	-1.97
O=S(=O)(c1ccc(N2CCOCC2)nc1)N1CCOCC1	-0.208
COC(=O)N/N=C/c1ccc(-c2ccc(Cl)c(Cl)c2)o1	0.0264

Compound	z-score
Cc1ccc(Nc2ccc(S(=O)(=O)N3CCOCC3)cc2[N+](=O)[O-])c(C)c1	1.29
COc1cccc(-n2c(C)c(C(C)=O)c(C(C)=O)c2C)c1	0.532
Cc1ccc2nc(NC(=O)C3CCN(S(=O)(=O)c4cc([N+](=O)[O-])ccc4Cl)CC3)sc2c1	0.225
CC(=NCc1ccco1)c1c(C(F)(F)F)[nH]n(-c2nc3ccccc3s2)c1=O	0.261
CCC(C)NCCOCCOc1ccc(Br)cc1C (stereo not given)	-0.776
CCOC(=O)c1c(NC(=S)Nc2ccc(C)cc2)sc2c1CCC2	-0.0357
Cc1cccc(OCCSc2ncnc3nc[nH]c23)c1	-0.162
O=C(Nc1ccccc1)c1cccnc1NCCc1ccccc1	-0.23
O=C(CCc1ccccc1)OCC(=O)c1ccc(Br)cc1	-0.193
O=C(COC(=O)/C=C/c1ccc(F)cc1)Nc1ccccc1-c1ccccc1	0.0587
COC(=O)c1nc(-n2nc(C)cc2C)ccc1Cl	-0.265
CCc1ccc(NC(=O)C2CC(=O)Nc3ncnn32)cc1 (stereo not given)	-0.109
CCOC(=O)CS(=O)(=O)c1ccccc1	0.158
COC(/C=C/Nc1ccc(C)cc1)=C(C#N)C#N	-0.275
CC(=O)Nc1ccc(S(=O)(=O)NNC(=O)COc2cc(C)ccc2C(C)C)cc1	0.303
CC(Sc1nc(N)cc(=O)[nH]1)C(=O)Nc1cccc(Cl)c1 (stereo not given)	-0.0879
O=C(CCc1ccccc1)Nc1nnc(-c2ccccn2)o1	0.0278
O=C(O)Cc1ccc(NC(=O)c2ccc(NC(=O)c3ccco3)cc2)cc1	-0.337
O=C(/C=C/c1ccco1)Oc1cc(Br)cc(/C=N/NC(=O)c2ccccc2O)c1	-0.00744
Cc1cc(C)c(NC2=NCC(=O)N2C2CCCCC2)c(C)c1	-0.306
O=[N+]([O-])c1ccc(-c2cnc(NO)nc2)cc1	-0.143
COC(=O)C1=C(C)N(CC(C)C)C(=O)C1	0.0326
COc1cccc(NCc2cc(=O)oc3cc(-c4ccccc4)c(O)cc23)c1	1.1
CCNc1nc(NCc2ccccc2)nc(Oc2ccc(=O)[nH]n2)n1	-0.148

Compound	z-score
CSCCC(NC(=O)c1ccco1)C(=O)OC(C)C(=O)NC(=O)NC1CCCCC1 (stereo not given)	active: -5.35
NC(=O)C1(NC(=O)[C@@H]2CC3(CC(c4cccc(NC(=O)[C@@H]5CCC(=O)N5)c4)=NO3)CN2C(=O)c2ccccc2)CC1 (stereo not given in full)	-0.0696
CC1(C)OC(=O)C2(Cc3ccccc3N3CCCCC32)C(=O)O1 (stereo not given)	-0.162
Cc1occc1C(=O)N1N=C(C2CC2)CC1(O)C(F)(F)F (stereo not given)	0.482
CCn1c(SCC(N)=O)nc2c(c1=O)C1(CCCC1)Cc1ccccc1-2	active: 5.27
CCN(CC)C(=O)Cn1c(=O)n(C)c2ccccc21	-0.353
CCOC(=O)C1=C(CC)Nc2ccccc2N=C1NC(=O)c1cccc(S(=O)(=O)N2CCCC2)c1	-0.533
Cc1nc(-c2ccccc2O)n(S(=O)(=O)N(C)C)n1	-0.0465
COc1ccccc1NC(=O)CSc1nc2sc(C)c(C)c2c(=O)n1Cc1ccco1	-0.18
COc1ccc2[nH]c(=O)c(CN(C(=O)c3ccncc3)C(C)(C)C)cc2c1	0.0369
CC(C)CCN1C(=O)c2ccc(C(=O)NCc3ccco3)cc2C1=O	-0.496
CN1CCN(S(=O)(=O)c2ccc(Sc3nnc(-c4cccs4)n3-c3ccccc3)nc2)CC1	-0.32
Cc1c(NC(=O)CN2c3cccc4cccc(c34)S2(=O)=O)c(=O)n(-c2ccccc2)n1C	0.347
Cc1ccc(C2NC(=O)c3c(sc4c3CCN(C)C4)N2)s1 (stereo not given)	-0.182
COC(=O)c1ccc(NC(=O)CSc2nnc(C)n2-c2ccccc2)cc1	-0.137
CC(NC(=O)c1cccnc1)C(c1ccccc1)N1CCN(C)CC1 (stereo not given)	0.00847
C=CCn1c(SCc2ccccc2)nnc1-c1cccnc1	-0.0801
Cc1cc2ncn(S(=O)(=O)N3CCCCC3)c2cc1C	-0.651
CC(C)(C)NC(=S)NCc1ccc2c(c1)OCO2	0.0205
CCOC(=O)N1CCN(C(=O)C(c2ccccc2)c2ccccc2)CC1	-0.133
C/C=C/c1ccc(OCCOc2cccc3cccnc23)c(OC)c1	-0.161
Clc1ccccc1-c1nnc2sc(C3COc4ccccc4O3)nn12 (stereo not given)	-0.958
